From the supplement of paper PMC9446081 come the findings set out here.

The structures appear in SMILES notation. Out of some 39,000 compounds screened, about 220 (0.56%) showed activity. Some of the results follow.
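Also: static incubation at 37 °C against the wild-type strain, values averaged over two biological replicates.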

The test system of the experiment is Escherichia coli K-12 BW25113. Put plainly: relative growth (OD600 normalised to plate interquartile mean) (fraction); higher = less growth inhibition, active = 0.2 or less. Particulars: 50 µM; LB; incubation time: overnight (16-24 h).
With `COc1ccc(NC(=O)N(C)C[C@@H]2Oc3c(NC(=O)c4ccc(-c5nccs5)cc4)cccc3C(=O)N([C@@H](C)CO)C[C@H]2C)cc1`, the relative growth was inactive: 0.999.
With `Cc1cc2c(cc1N)n(C)c(=O)n2C`, the relative growth is inactive: 0.986.
To `COc1ccc(S(=O)(=O)Nc2cccc3c2O[C@H](CN(C)S(=O)(=O)c2ccccc2)[C@@H](C)CN([C@H](C)CO)C3=O)cc1` belongs inactive: 0.913.
To `C[C@@H]1CCCCO[C@H](CN(C)S(=O)(=O)c2cn(C)cn2)[C@@H](C)CN([C@@H](C)CO)C(=O)c2cc(NS(=O)(=O)c3ccccc3)ccc2O1` belongs inactive: 0.998; to `COc1ccccc1NC(=O)N(C)C[C@H]1OCc2ccccc2-c2c(n(C)c3ccccc23)C(=O)N([C@H](C)CO)C[C@H]1C`, inactive: 1.02.
For `Cc1cc(C(=O)O)cc(S(N)(=O)=O)c1`, the relative growth was inactive: 1.02.
As for `CCc1ccc(CNC2CC2)cc1`, the relative growth was inactive: 0.973.
To `C[C@@H]1CCCCO[C@H](CN(C)Cc2ccccc2)[C@@H](C)CN([C@H](C)CO)C(=O)c2cc(NS(=O)(=O)c3ccc(Cl)cc3)ccc2O1` belongs inactive: 1; to `COc1ccc(NC(=O)Nc2cccc3c2O[C@@H](CN(C)C(=O)Nc2ccc(C(F)(F)F)cc2)[C@@H](C)CN([C@@H](C)CO)C3=O)cc1`, inactive: 0.954; to `C[C@H]1CN([C@@H](C)CO)C(=O)c2cccc(NS(C)(=O)=O)c2O[C@H]1CN(C)Cc1ccc(C(F)(F)F)cc1`, inactive: 0.999.
To `C[C@@H]1CCCCO[C@H](CN(C)Cc2ccc(Cl)c(Cl)c2)[C@@H](C)CN([C@@H](C)CO)C(=O)c2cc(NS(=O)(=O)c3cn(C)cn3)ccc2O1` belongs inactive: 0.829; to `C=CC(C)(C)c1[nH]c2ccccc2c1C1=C(O)C(=O)C(c2c[nH]c3c(CC=C(C)C)cccc23)=C(O)C1=O`, inactive: 1.04.
To `C[C@@H]1CN([C@H](C)CO)C(=O)c2cccc(NC(=O)c3ccc(-c4nccs4)cc3)c2O[C@@H]1CN(C)C(=O)Nc1cccc2ccccc12` belongs inactive: 1.
For `O=C(C[C@H]1CC[C@H]2[C@@H](COC[C@H](O)CN2C(=O)c2cnccn2)O1)NCc1ccc(Oc2ccccc2)cc1`, the relative growth was inactive: 0.985.
To `COc1ccc(C#Cc2cnc3c(c2)C(=O)N([C@H](C)CO)C[C@H](C)[C@H](CN(C)S(=O)(=O)c2ccc(C)cc2)O3)cc1OC` belongs inactive: 1.04; to `C[C@H]1CN([C@@H](C)CO)C(=O)c2cc(NS(=O)(=O)c3cn(C)cn3)ccc2O[C@@H]1CN(C)Cc1ccncc1`, inactive: 1.01.
To `O=C(CN1CCOCC1)NCC[C@@H]1CC[C@H](NC(=O)c2ccc3c(c2)OCO3)[C@@H](CO)O1` belongs inactive: 1.02.
To `COCC(=O)N1CC[C@]2(CC1)CN([C@H](CO)c1[nH]c3cc(ccc3c12)OC)S(=O)(=O)C` belongs inactive: 0.984; to `O=C(O)C=CC=Cc1ccccc1`, inactive: 0.894; to `NCCc1nc(-c2ccncc2)no1`, inactive: 1.04.
Take `CC(C)CC#Cc1ccc2c(c1)O[C@H](CN(C)C(=O)c1ccccn1)[C@H](C)CN([C@@H](C)CO)S2(=O)=O`: the relative growth was inactive: 0.956.
To `CC(C)NC(=O)N(C)C[C@H]1Oc2cc(C#Cc3cccc(F)c3)ccc2S(=O)(=O)N([C@@H](C)CO)C[C@@H]1C` belongs inactive: 0.99.
Turning to `Cc1ccccc1OCC(O)CO` (stereo not drawn), the relative growth was inactive: 1.04.
To `Cc1ccc(S(=O)(=O)Nc2ccc3c(c2)C(=O)N([C@@H](C)CO)C[C@@H](C)[C@@H](CN(C)CC2CCCCC2)OCCCC[C@@H](C)O3)cc1` belongs inactive: 0.959; to `COc1cccc(CNC(=O)c2cc3c(c(-c4cccc(-c5ccncc5)c4)n2)[C@@H](CCO)N([S@](=O)C(C)(C)C)C3)c1`, inactive: 1.01.
To `COc1cccc(CN(C)C[C@H]2OCc3ccccc3-c3c(n(C)c4ccccc34)C(=O)N([C@H](C)CO)C[C@H]2C)c1` belongs inactive: 0.995; to `C[C@H](CO)N1C[C@H](C)[C@@H](CN(C)S(=O)(=O)c2cn(C)cn2)Oc2ccc(NC(=O)Cc3cn(C)c4ccccc34)cc2C1=O`, inactive: 1.01; to `C[C@@H]1CN([C@@H](C)CO)C(=O)Cc2cc(NC(=O)Cn3cnnn3)ccc2O[C@@H]1CN(C)CC1CCCCC1`, inactive: 0.982.
To `O=C(C[C@@H]1C=C[C@H](NC(=O)c2ccc(F)cc2)[C@H](CO)O1)NCc1ccncn1` belongs inactive: 0.992; to `CN1C(=O)c2cc(NC(=O)c3ccc(F)c(F)c3)ccc2OC[C@H]2O[C@H](CC(=O)N3CCOCC3)CC[C@@H]21`, inactive: 0.994; to `CC(C)NC(=O)N(C)C[C@H]1Oc2cc(-c3ccccc3F)ccc2S(=O)(=O)N([C@@H](C)CO)C[C@@H]1C`, inactive: 0.998.
Turning to `C[C@H]1CN([C@@H](C)CO)C(=O)c2cc(NS(C)(=O)=O)ccc2O[C@@H]1CN(C)S(C)(=O)=O`, the relative growth was inactive: 0.988.
To `C[C@@H]1CN([C@@H](C)CO)S(=O)(=O)c2ccc(Br)cc2O[C@@H]1CN(C)Cc1ccc2c(c1)OCO2` belongs inactive: 1.01; to `COc1ccc(NC(=O)N(C)C[C@@H]2Oc3ncc(C#C[C@H](C)O)cc3C(=O)N([C@H](C)CO)C[C@H]2C)cc1`, inactive: 0.978.
As to `CCOC(=O)[C@@H]1CCC[C@@H]1N`, the relative growth was inactive: 1.02.
To `C[C@@H]1CCCCO[C@H](CN(C)S(=O)(=O)c2ccc(Cl)cc2)[C@@H](C)CN([C@H](C)CO)C(=O)c2cc(NC(=O)CCCCCC(=O)Nc3ccccc3N)ccc2O1` belongs inactive: 0.948.
To `COCC(=O)N1CC[C@]2(CC1)CN([C@@H](CO)c1[nH]c3cc(ccc3c12)OC)C(=O)Nc1ccccc1F` belongs inactive: 1.02; to `C[C@@H]1CCCCO[C@H](CN(C)Cc2ccncc2)[C@@H](C)CN([C@H](C)CO)C(=O)c2cc(NC(=O)CCC(F)(F)F)ccc2O1`, inactive: 1.05; to `C[C@@H]1CCCCO[C@H](CN(C)C(=O)c2ccccc2)[C@@H](C)CN([C@H](C)CO)C(=O)c2cc(NC(=O)Nc3ccccc3)ccc2O1`, inactive: 0.984.
To `Cc1ccccc1[C@@H](c1ncccc1C)N(C)C(=O)C1CCN(CCOc2ccc3ccccc3c2)CC1` belongs inactive: 0.996.
With `C[C@@H]1CCCCO[C@H](CN(C)S(C)(=O)=O)[C@H](C)CN([C@@H](C)CO)C(=O)c2cc(NS(=O)(=O)c3cccs3)ccc2O1`, the relative growth was inactive: 0.986.
On to `C[C@@H]1CN([C@H](C)CO)C(=O)c2cc(-c3cccnc3)cnc2O[C@H]1CN(C)C(=O)Nc1ccc2c(c1)OCO2`, for which the relative growth is inactive: 0.996.
To `COCC#Cc1ccc2c(c1)O[C@@H](CN(C)S(=O)(=O)c1cccc(OC)c1)[C@H](C)CN([C@H](C)CO)S2(=O)=O` belongs inactive: 1.03; to `C[C@@H]1CN([C@H](C)CO)C(=O)Cc2cc(NC(=O)C3CC3)ccc2O[C@@H]1CN(C)Cc1ccc(C(=O)O)cc1`, inactive: 0.969.
To `CC(C)(C)C(=O)C(Oc1ccc(Cl)cc1)n1ccnc1` (stereo not drawn) belongs inactive: 1.04.
To `O=C(C[C@H]1CC[C@H](NS(=O)(=O)c2ccc(F)cc2)[C@H](CO)O1)N1CCC(Cc2ccccc2)CC1` belongs inactive: 1.
Regarding `C[C@@H]1CCCCO[C@@H](CN(C)S(C)(=O)=O)[C@@H](C)CN([C@@H](C)CO)C(=O)c2cc(NS(=O)(=O)c3ccccc3)ccc2O1`, the relative growth is inactive: 1.03.
To `Cc1noc(C)c1NC(=O)N(C)C[C@@H]1Oc2ccc(NS(=O)(=O)c3cn(C)cn3)cc2C(=O)N([C@H](C)CO)C[C@@H]1C` belongs inactive: 0.815; to `O=C(c1cccc2ccccc12)N(C1CCCC1)C1CCCC1`, inactive: 1.04.
Consider `C[C@H]1CN([C@@H](C)CO)C(=O)c2cc(C#CCN(C)C)cnc2O[C@@H]1CN(C)Cc1ccc2c(c1)OCO2`, for which the relative growth was inactive: 1.01.
On to `Cc1noc(C)c1NC(=O)Nc1cccc2c1O[C@H](CN(C)S(=O)(=O)c1cn(C)cn1)[C@@H](C)CN([C@@H](C)CO)C2=O`, for which the relative growth is inactive: 1.01.
Turning to `COCCNC(=O)C[C@H]1CC[C@H]2[C@H](COc3ccc(NS(=O)(=O)c4ccc(Cl)cc4)cc3C(=O)N2C)O1`, the relative growth is inactive: 1.02.
To `C[C@@H]1CN([C@@H](C)CO)C(=O)CCCn2cc(nn2)CO[C@H]1CN(C)S(=O)(=O)c1ccc(Oc2ccccc2)cc1` belongs inactive: 0.998.
To `Clc1ccc(-c2nnc(Nc3ccccc3)s2)c(Cl)c1` belongs inactive: 1.07.
To `COCC#Cc1cnc2c(c1)C(=O)N([C@H](C)CO)C[C@@H](C)[C@H](CN(C)S(=O)(=O)c1cccc(OC)c1)O2` belongs inactive: 0.992.
Turning to `Cc1noc(C)c1NC(=O)Nc1ccc2c(c1)C(=O)N([C@H](C)CO)C[C@H](C)[C@H](CN(C)Cc1ccccc1)OCCCC[C@H](C)O2`, the relative growth was inactive: 0.966.
Regarding `C[C@@H]1CN([C@H](C)CO)C(=O)c2cc(NC(=O)Nc3ccccc3)ccc2O[C@@H](C)CCCCO[C@H]1CN(C)C(=O)C1CCCCC1`, the relative growth was inactive: 1.02.
To `O=C(N[C@H]1CC[C@H](CCNS(=O)(=O)c2ccccc2)O[C@H]1CO)c1cnccn1` belongs inactive: 1; to `C=CC[C@H](CC(=O)NCCO)C(=O)N[C@H](COC(=O)[C@H](CC=C)CC(=O)OC(C)(C)C)c1ccccc1`, inactive: 0.996.
To `O=C(NCCN1CCOCC1)[C@@]1(Cc2ccccc2)N=C(c2ccc(OCCCO)cc2)O[C@H]1c1ccccc1` belongs inactive: 1.01; to `C[C@@H]1CN([C@@H](C)CO)C(=O)Cc2cc(NS(C)(=O)=O)ccc2O[C@@H]1CN(C)S(=O)(=O)c1ccccc1`, inactive: 0.993.
To `C[C@@H]1CN([C@H](C)CO)C(=O)c2cc(NC(=O)CCCN(C)C)ccc2O[C@@H]1CN(C)C(=O)NC1CCCCC1` belongs inactive: 1.02; to `C[C@@H]1CCCCO[C@H](CN(C)C(=O)Nc2ccc3c(c2)OCO3)[C@@H](C)CN([C@H](C)CO)C(=O)c2cc(NC(=O)Nc3ccc(F)cc3)ccc2O1`, inactive: 0.928.
